# Measured values taken from article PMC4336329 (PLoS ONE, 2015).
# Among all 310,000 compounds or so, about 14,000 (4.5%) showed an effect of 50% or more. Effects have a minus sign here. The list shows a part of the results.
# Molecular target: human ether-à-go-go-related gene (hERG) potassium channel (human, UniProt Q12809)
# Assay: primary screen, population patch clamp on CHO cells stably expressing hERG
# 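Also: peak tail current of the secondary pulse compared with the same well before compound.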
# Chain of human ether-à-go-go-related gene (hERG) potassium channel (Q12809 whole entry, looked up): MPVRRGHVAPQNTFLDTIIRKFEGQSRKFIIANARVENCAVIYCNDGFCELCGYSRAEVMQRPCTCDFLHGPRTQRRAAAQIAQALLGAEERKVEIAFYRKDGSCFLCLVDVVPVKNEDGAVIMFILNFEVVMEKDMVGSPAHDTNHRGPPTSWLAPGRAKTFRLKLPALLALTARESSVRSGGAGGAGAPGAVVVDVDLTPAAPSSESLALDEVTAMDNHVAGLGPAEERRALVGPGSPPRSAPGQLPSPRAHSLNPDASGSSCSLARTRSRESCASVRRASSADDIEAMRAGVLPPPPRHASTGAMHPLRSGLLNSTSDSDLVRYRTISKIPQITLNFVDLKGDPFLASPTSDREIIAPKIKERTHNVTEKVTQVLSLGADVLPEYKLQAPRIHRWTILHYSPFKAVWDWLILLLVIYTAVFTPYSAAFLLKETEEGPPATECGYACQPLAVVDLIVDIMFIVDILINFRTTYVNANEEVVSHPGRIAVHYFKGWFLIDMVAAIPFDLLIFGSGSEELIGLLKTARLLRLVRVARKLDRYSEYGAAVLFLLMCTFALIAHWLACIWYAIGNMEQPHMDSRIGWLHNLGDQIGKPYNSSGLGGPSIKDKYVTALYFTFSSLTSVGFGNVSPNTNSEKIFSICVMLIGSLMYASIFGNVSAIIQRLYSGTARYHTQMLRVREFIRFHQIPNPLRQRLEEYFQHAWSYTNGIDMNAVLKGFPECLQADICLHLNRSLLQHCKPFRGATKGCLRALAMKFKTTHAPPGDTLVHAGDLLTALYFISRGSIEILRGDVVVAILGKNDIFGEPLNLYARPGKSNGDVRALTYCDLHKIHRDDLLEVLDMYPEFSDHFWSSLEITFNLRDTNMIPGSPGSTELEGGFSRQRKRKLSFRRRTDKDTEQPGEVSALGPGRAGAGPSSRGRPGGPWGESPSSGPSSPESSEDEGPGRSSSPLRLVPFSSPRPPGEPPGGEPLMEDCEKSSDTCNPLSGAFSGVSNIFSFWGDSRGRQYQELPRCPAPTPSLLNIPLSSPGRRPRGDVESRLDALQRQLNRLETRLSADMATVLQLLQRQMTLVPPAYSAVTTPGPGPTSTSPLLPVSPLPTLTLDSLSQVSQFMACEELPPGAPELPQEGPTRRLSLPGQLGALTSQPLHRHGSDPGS
row,SMILES,"hERG current change (%, negative = inhibition) at 10uM [%]"
1,COc1ccc(CNC(=O)C2CCCN2S(=O)(=O)c2ccc(C)cc2)cc1 (centres unmarked),-13.1
2,O=C(COC(=O)c1ccc2ccccc2c1O)NCc1ccccc1,12.9
3,Cc1ccc2nc(NC(=O)CCCC(=O)O)sc2c1,31.8
4,Cc1cccnc1NC(=O)CSc1ncnc2sc(C)c(C)c12,-17.5
5,Cc1ccc(NCc2nnc(SCC(=O)Nc3cccc(O)c3)n2CC2CCCO2)c(C)c1 (centres unmarked),-68.2
6,Cc1ccc(OCC(=O)NNC(=O)CSc2nnc(-c3ccc(C)cc3)n2C)cc1,16.6
7,COc1cc(/C=C/C(=O)OCC(=O)NCCN2C(=O)CSC2=O)ccc1OC(F)F,-30.5
8,Cc1ccc(S(=O)(=O)n2nc(-n3c(C)ccc3C)c3c(F)cccc32)c2ccccc12,12.3
9,COc1ccc(NC(=O)c2cncc(Br)c2)cc1S(N)(=O)=O,0.881
10,O=C(NCCCN1CCOCC1)c1ccccc1NS(=O)(=O)c1ccc(Br)cc1,-56.1
11,COc1ccc(OC)c(S(=O)(=O)NC2CC(=O)N(c3ccc(C)c(C)c3)C2)c1 (centres unmarked),-13.1
12,CCCCn1c(C)nc2c(=O)n(C)c(=O)[nH]c21,15.5
13,CCCCn1c(N)c(N(CC(C)C)C(=O)C2CCC2)c(=O)[nH]c1=O,-0.941
14,CN1CCN(Cc2nc3c(c(=O)n(C)c(=O)n3C)n2CCCc2ccccc2)CC1,-13.4
15,Cc1nn(-c2ccccc2)c(C)c1NC(=O)COC(=O)c1ccc(Cl)c(N)c1,-35.1
16,Cc1ccc(NC(=O)CN(c2ccc(C)cc2)S(=O)(=O)c2cccc3nonc23)cc1,-5.79
17,COc1cc2c(cc1O)CCN(C(=O)c1ccco1)C2C (centres unmarked),-7.83
18,O=C1C2C(c3ccccc3)(C(=O)N1c1ccc(Cl)cc1)C2(c1ccccc1)c1ccccc1 (centres unmarked),-0.401
19,Cc1ccccc1NS(=O)(=O)c1cc(C(=O)NCc2ccncc2)ccc1Cl,-26.1
20,CCc1cccc(NC(=O)Cn2c(=O)c3cccn3c3ccccc32)c1,13.3
21,Cc1ccc(CN2CCN(Cc3cnn(-c4ccc(Cl)cc4)c3)CC2CCO)o1 (centres unmarked),-69.8
22,CCOC(=O)NC(=O)C(=CNc1cccc(C)c1)C(=O)NC(=O)OCC,7.13
23,O=C(O)c1ccccc1NC(=O)C1C2C=CC(C2)C1C(=O)O (centres unmarked),3.5
